# Data from paper PMC4336329 (PLoS ONE, 2015).
# The whole screen tested about 310,000 compounds, of which about 14,000 (4.5%) showed an effect of 50% or more. The effect is printed as a negative number. The list shows a part of the results.
# Target: human ether-à-go-go-related gene (hERG) potassium channel (human, UniProt Q12809)
# Assay: primary screen, population patch clamp on CHO cells stably expressing hERG
# 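Further: peak tail current of the secondary pulse compared with the same well before compound.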
# human ether-à-go-go-related gene (hERG) potassium channel, sequence (Q12809 whole entry, looked up): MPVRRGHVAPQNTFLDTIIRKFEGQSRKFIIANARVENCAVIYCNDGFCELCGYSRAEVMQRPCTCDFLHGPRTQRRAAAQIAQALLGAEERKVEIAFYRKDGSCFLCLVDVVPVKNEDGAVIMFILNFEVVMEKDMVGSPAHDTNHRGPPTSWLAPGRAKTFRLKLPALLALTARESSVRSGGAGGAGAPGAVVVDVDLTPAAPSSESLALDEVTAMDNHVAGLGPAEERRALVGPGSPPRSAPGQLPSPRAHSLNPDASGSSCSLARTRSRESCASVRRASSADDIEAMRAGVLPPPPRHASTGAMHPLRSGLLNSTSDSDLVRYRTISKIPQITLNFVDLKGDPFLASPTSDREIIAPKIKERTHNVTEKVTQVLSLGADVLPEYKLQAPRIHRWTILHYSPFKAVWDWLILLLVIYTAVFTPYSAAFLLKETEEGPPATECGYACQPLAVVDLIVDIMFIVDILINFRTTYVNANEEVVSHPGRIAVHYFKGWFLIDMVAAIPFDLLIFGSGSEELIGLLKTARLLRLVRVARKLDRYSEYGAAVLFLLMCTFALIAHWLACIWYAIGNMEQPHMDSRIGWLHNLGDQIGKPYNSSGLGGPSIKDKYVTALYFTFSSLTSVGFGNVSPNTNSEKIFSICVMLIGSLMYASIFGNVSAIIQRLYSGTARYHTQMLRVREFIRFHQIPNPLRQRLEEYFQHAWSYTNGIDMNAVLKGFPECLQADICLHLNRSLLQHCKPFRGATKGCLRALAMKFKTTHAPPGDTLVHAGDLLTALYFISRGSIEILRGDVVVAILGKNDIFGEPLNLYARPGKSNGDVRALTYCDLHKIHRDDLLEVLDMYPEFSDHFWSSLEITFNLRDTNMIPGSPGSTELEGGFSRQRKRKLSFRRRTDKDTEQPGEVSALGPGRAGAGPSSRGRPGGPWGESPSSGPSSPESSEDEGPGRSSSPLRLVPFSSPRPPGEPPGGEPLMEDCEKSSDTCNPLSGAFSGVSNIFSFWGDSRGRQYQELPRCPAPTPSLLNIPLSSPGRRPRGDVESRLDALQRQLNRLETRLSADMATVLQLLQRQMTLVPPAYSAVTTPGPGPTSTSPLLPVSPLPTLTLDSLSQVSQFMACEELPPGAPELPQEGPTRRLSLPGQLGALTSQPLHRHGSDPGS
row,SMILES,"hERG current change (%, negative = inhibition) at 10uM"
1,Cc1cc(N2CCN(c3ccccc3)CC2)n2nnnc2n1,-3.56%
2,Cc1ccc(C(=O)COc2ccc3c(C)cc(=O)oc3c2)cc1,-1.49%
3,O=C(NC1CCN(C(=S)Nc2ccccc2)CC1)C1CCCCC1,-15.2%
4,CN1CCN(Cc2ccc(OC(F)(F)F)cc2)CC1,-38.1%
5,CCC(NC(=O)c1cc(COc2ccc(Cl)cc2OC)on1)c1ccncc1 (centres unmarked),-24%
6,CCc1ccc(CN(C)C(=O)c2ccc3c(c2)OCCO3)cc1,6.09%
7,O=C(O)c1ccc(Cl)c(S(=O)(=O)N2CCCC2)c1,15.5%
8,COc1ccc(CC(=O)NC2CCCCCC2)c(OC)c1,-3.09%
9,CC(C)NC(=O)c1cccc(C(F)(F)F)c1,-10.7%
10,CC(NC(=O)COC(=O)CNC(=O)c1ccc(-c2ccccc2)cc1)c1ccccc1 (centres unmarked),11.8%
11,O=C(CSc1ncccn1)Nn1cnnc1,8.45%
12,CCN1C(=O)C2(C(C#N)=C(N)Oc3cc(C)oc(=O)c32)c2ccccc21 (centres unmarked),4.58%
13,CC(=O)c1c(C)[nH]c(C(=O)OCC(=O)Nc2ccc(Cl)c(S(=O)(=O)N(C)C)c2)c1C,-17.6%
14,Cc1ccc(-n2nnc3c(=O)n(CC(=O)NCc4ccccc4)cnc32)cc1,-15.5%
15,CCc1cc(=O)oc2cc(C)cc(OCC(=O)N[C@@H](CSCc3ccccc3)C(=O)O)c12,4.48%
16,Cc1ccc(NN2C(=O)C=CC2=O)cc1,0.632%
17,O=C1C=C(NNC(=O)c2ccccc2Br)CCC1,13.2%
18,Cc1ccc2oc(=O)n(Cc3ccc(OC(C)C)cc3)c2c1,-0.385%
19,CC(C)n1c(-c2ccc(C(C)(C)C)cc2)n[nH]c1=S,10.5%
20,COc1cccc2sc(=NC(=O)CCS(=O)(=O)c3ccc(C)cc3)n(C)c12,8.32%
21,O=C(c1ccco1)N1CCN(C(=O)N2CCCC2)CC1,-8.27%
22,COC(=O)c1c(C(=O)OC)c(C)n(Cc2cccnc2)c1C,-5.53%
23,CC1CCCCN1CCCNC(=O)c1ccc(N2CCCC2=O)cc1 (centres unmarked),14.4%
24,COc1ccc(/C=N/NC(=O)c2cccc([N+](=O)[O-])c2)cc1O,0.427%
25,COc1cc(OC)c(N(C)S(=O)(=O)c2cccc(C(=O)NC(C)C3CC4CCC3C4)c2)cc1Cl (centres unmarked),-2.47%
26,Nc1[nH]nc2ncc3cc4ccccc4nc3c12,26.8%
